# Measurements as given in the supplement of paper PMC3334620.
# Whole data set: some 33,000 sequences, median “E-score (-0.5 to 0.5)” near -0.012, cut for the highest 2% near 0.29. Some of the results follow.
# Target: T1, Ybr033w (UniProt P38073)
# T1 sequence: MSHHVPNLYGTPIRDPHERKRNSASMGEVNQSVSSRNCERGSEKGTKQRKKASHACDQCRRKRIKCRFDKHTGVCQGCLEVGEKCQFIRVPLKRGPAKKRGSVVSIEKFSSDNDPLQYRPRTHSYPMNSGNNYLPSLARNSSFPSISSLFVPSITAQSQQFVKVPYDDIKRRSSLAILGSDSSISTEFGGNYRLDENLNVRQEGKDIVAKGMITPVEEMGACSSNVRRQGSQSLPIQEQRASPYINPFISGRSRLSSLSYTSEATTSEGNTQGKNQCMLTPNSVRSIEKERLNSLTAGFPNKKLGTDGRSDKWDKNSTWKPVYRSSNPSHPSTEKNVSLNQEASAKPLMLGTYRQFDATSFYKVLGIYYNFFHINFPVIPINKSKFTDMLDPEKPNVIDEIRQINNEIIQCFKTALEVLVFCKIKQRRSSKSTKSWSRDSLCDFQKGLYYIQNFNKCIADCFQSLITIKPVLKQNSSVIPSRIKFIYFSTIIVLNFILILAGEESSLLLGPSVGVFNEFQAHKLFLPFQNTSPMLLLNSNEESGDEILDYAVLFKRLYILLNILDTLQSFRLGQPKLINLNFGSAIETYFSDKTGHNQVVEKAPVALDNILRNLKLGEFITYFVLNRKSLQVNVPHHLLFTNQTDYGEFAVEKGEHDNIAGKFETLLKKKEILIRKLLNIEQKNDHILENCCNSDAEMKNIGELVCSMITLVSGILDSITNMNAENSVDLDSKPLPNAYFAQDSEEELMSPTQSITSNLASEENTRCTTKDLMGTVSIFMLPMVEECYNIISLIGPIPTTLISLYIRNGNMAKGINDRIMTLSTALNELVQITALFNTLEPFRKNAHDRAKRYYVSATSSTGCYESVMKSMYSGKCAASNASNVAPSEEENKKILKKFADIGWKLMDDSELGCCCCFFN
# Assay: PBM E-score (8-mer binding enrichment) (E-score (-0.5 to 0.5)); higher = stronger / more preferred TF binding; most listed sequences are background and not binding sites
# Settings: protein concentration: 200 nM; construct: GST-full length
# In short: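 Masliner-normalised scans of fluorescent anti-GST signal were the basis for scoring. That signal came from GST-tagged yeast transcription factors applied at about 100-200 nM to double-stranded universal all-10-mer Agilent arrays on fresh or once-stripped slides. Each ungapped eight-base word, pooled with its reverse complement, received an E-score from the Universal PBM Analysis Suite.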
row,Sequence,PBM E-score
1,CCATACCC,-0.175
2,CAACAGAG,0.0418
3,AAAACATC,0.0893
4,AACGCGTC,-0.106
5,GCGAAATA,0.12
6,TAGGAACA,0.316
7,GTTCCCCA,-0.174
8,AACGCGTT,-0.0853
9,GATGTGAA,0.192
10,AAACTTCC,0.068
11,GATATACC,0.131
12,TGGTATAA,0.21
13,AGATATCA,0.0755
14,GAACTTCC,0.16
15,CATAGCGC,0.0611
16,CATAACGC,-0.00058
17,TAAGCTCA,0.0366
18,AAGCTCAG,0.00297
19,AAACGAAA,0.113
20,CCACACGA,-0.143
21,CGTTTGAG,0.039
22,AATGTCCA,0.0106

row,Sequence,PBM E-score
1,CAAATTCA,0.178
2,CCACCCGC,-0.176
3,ACACCACT,0.205
4,AACAAGCT,0.129
5,GTTTGGGA,0.05
6,GTAATTGA,0.118
7,GACCGGGA,-0.178
8,CTAGCTAC,-0.156
9,ATGGCAAT,0.118
10,GATTTACC,0.21
11,AAGAGGAG,-0.138
12,ATACCTAG,0.105
13,CACCTTTA,-0.0505
14,GAGTTATC,0.0808
15,AGTGTGTA,-0.00209
16,CATCCCAC,-0.273
17,GATTCAAA,0.184
18,CAGAGCCG,-0.193
19,ACGCCCCG,-0.224
20,CCTGACAC,-0.0532
21,CGGCGCCA,-0.168
22,ACTAATGG,0.128

row,Sequence,PBM E-score
1,GATAGTGC,-0.0956
2,ACCGCATC,-0.139
3,AGATCACC,-0.102
4,CGCGATTC,0.0314
5,AACATTAA,0.224
6,AGTACAGA,0.0464
7,TACCGGGA,-0.0362
8,CTCATCTA,-0.0476
9,ACACTCGT,-0.075
10,CGAATCAG,0.0523
11,AGCTCACC,-0.209
12,ACAACCAT,0.297
13,AGTCCGAG,-0.0537
14,AGCACTGG,-0.157
15,TACTACTA,0.335
16,GATCCAAA,0.109
17,CCACTGAG,-0.237
18,CACACGGG,-0.256
19,AAGCAAAA,0.13
20,GCTTCATA,0.0157
21,CTGTGGGA,-0.125
22,CAAATACA,0.189

row,Sequence,PBM E-score
1,CTAATTTC,0.181
2,GCGATAGC,-0.17
3,TAGAGAAA,0.135
4,CAGCGGGC,-0.176
5,CAAACAGG,-0.131
6,CCGCCCCC,-0.256
7,CAGCTCCA,-0.105
8,AATACAAG,0.252
9,CTCGAAAC,0.185
10,AATCATGA,0.173
11,CCTGCTCC,-0.17
12,CCAAGTCA,-0.0141
13,AATAAAAG,0.0821
14,AGTTTGGC,0.0217
15,TCAAGACA,0.0336
16,AAAAACTT,0.237
17,ACCAGATG,-0.127
18,CCAGACCC,-0.251
19,CAGATTCG,-0.0294
20,AGGCGCCA,-0.185
